Data reported in patent US20230159603A1 (XILIO DEVELOPMENT, published 2023).

B1: AK665 (Fc fusion)
chain 1: [human IgG1 Fc with changes left out here]GGSPGKIDACKRGDVTVKPSHVILLGSTVNITCSLKPRQGCFHYSRRNKLILYKFDRRINFHHGHSLNSQVTGLPLGTTLFVCKLACINSDEIQICGAEIFVGVAPEQPQNLSCIQKGEQGTVACTWERGRDTHLYTEYTLQLSGPKNLTWQKQCKDIYCDYLDFGINLTPESPESNFTAKVTAVNSLGSSSSLPSTFTFLDIVRPLPPWDIRIKFQKASVSRSTLYWRDEGLVLLNRLRYRPSNSRLWNMVNVTKAKGRHDLLDLKPFTEYEFQISSKLHLYKGSWSDWSESLRAQTPEE
chain 2: DKTHTCPPCPAPELLGGPSVFLFPPKPKDTLMISRTPEVTCVVVDVSHEDPEVKFNWYVDGVEVHNAKTKPREEQYASTYRVVSVLTVLHQDWLNGKEYKCKVSNKALPAPIEKTISKAKGQPREPQVYTLPPCRDELTKNQVSLWCLVKGFYPSDIAVEWESNGQPENNYKTTPPVLDSDGSFFLYSKLTVDKSRWQQGNVFSCSVMHEALHNHYTQKSLSLSPGGGSGGSGGSVPLSLYSGPIWELKKDVYVVELDWYPDAPGEMVVLTCDTPEEDGITWTLDQSSEVLGSGKTLTIQVKEFGDAGQYTCHKGGEVLSHSLLLLHKKEDGIWSTDILKDQKEPKNKTFLRCEAKNYSGRFTCWWLTTISTDLTFSVKSSRGSSDPQGVTCGAATLSAERVRGDNKEYEYSVECQEDSACPAAEESLPIEVMVDAVHKLKYENYTSSFFIRDIIKPDPPKNLQLKPLKNSRQVEVSWEYPDTWSTPHSYFSLTFSVQVQGKDNTEGRVFTDKTSATVICRKNASISVRAQDRYYSSSWSEWASVPCSGGGGSGGGGSGGGGSRNLPVATPDPGMFPCLHHSQNLLRAVSNMLQKARQTLEFYPCTSEEIDHEDITKDKTSTVEACLPLELTKNESCLNSRETSFITNGSCLASRKTSFMMALCLSSIYEDLKMYQVEFKTMNAKLLMDPKRQIFLDQNMLAVIDELMQALNFNSETVPQKSSLEEPDFYKTKIKLCILLHAFRIRAVTIDRVMSYLNAS
B2: AK666 (Fc fusion)
chain 1: [human IgG1 Fc with changes left out here]PGGSGPKIDACKRGDVTVKPSHVILLGSTVNITCSLKPRQGCFHYSRRNKLILYKFDRRINFHHGHSLNSQVTGLPLGTTLFVCKLACINSDEIQICGAEIFVGVAPEQPQNLSCIQKGEQGTVACTWERGRDTHLYTEYTLQLSGPKNLTWQKQCKDIYCDYLDFGINLTPESPESNFTAKVTAVNSLGSSSSLPSTFTFLDIVRPLPPWDIRIKFQKASVSRSTLYWRDEGLVLLNRLRYRPSNSRLWNMVNVTKAKGRHDLLDLKPFTEYEFQISSKLHLYKGSWSDWSESLRAQTPEE
chain 2: DKTHTCPPCPAPELLGGPSVFLFPPKPKDTLMISRTPEVTCVVVDVSHEDPEVKFNWYVDGVEVHNAKTKPREEQYASTYRVVSVLTVLHQDWLNGKEYKCKVSNKALPAPIEKTISKAKGQPREPQVYTLPPCRDELTKNQVSLWCLVKGFYPSDIAVEWESNGQPENNYKTTPPVLDSDGSFFLYSKLTVDKSRWQQGNVFSCSVMHEALHNHYTQKSLSLSPGGGSGGSVPLSLYSGPIWELKKDVYVVELDWYPDAPGEMVVLTCDTPEEDGITWTLDQSSEVLGSGKTLTIQVKEFGDAGQYTCHKGGEVLSHSLLLLHKKEDGIWSTDILKDQKEPKNKTFLRCEAKNYSGRFTCWWLTTISTDLTFSVKSSRGSSDPQGVTCGAATLSAERVRGDNKEYEYSVECQEDSACPAAEESLPIEVMVDAVHKLKYENYTSSFFIRDIIKPDPPKNLQLKPLKNSRQVEVSWEYPDTWSTPHSYFSLTFSVQVQGKDNTEGRVFTDKTSATVICRKNASISVRAQDRYYSSSWSEWASVPCSGGGGSGGGGSGGGGSRNLPVATPDPGMFPCLHHSQNLLRAVSNMLQKARQTLEFYPCTSEEIDHEDITKDKTSTVEACLPLELTKNESCLNSRETSFITNGSCLASRKTSFMMALCLSSIYEDLKMYQVEFKTMNAKLLMDPKRQIFLDQNMLAVIDELMQALNFNSETVPQKSSLEEPDFYKTKIKLCILLHAFRIRAVTIDRVMSYLNAS

Target: human IL-12 receptor (IL-12Rβ1 and IL-12Rβ2) on HEK-Blue IL-12 reporter cells (human, UniProt P42701 24-662; Q99665 24-862)
Assay: cell-based or functional assay

Aklusion (Run 1) [fold]	Aklusion (Run 2) [fold]	Average Aklusion [fold]	Aklusion (Run 1, lot AK666-01A) [fold]	Aklusion (Run 1, lot AK666-02A) [fold]	Aklusion (Run 2, lot AK666-01A) [fold]	Aklusion (Run 2, lot AK666-02A) [fold]	Average Aklusion (lot AK666-01A) [fold]	Average Aklusion (lot AK666-02A) [fold]	Binder
52.9	60.5	56.7	–	–	–	–	–	–	B1
–	–	–	72	70	81.5	62.4	76.8	66.2	B2
